Results on 24 sequences are retold here after the supplement of paper PMC11417369.

Some of the results follow.

This test relates to PfSIP2 AP2 domain 1 (GST-tagged). Put plainly: gcPBM binding intensity (ln(normalized median fluorescence intensity)); higher = stronger DNA binding. In short, it runs like this: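 Plasmodium falciparum DNA-binding domains carrying a GST tag were expressed in E. coli and applied for 1 h, at about 25 μg on average, to an Agilent 4 × 180k array. The array held primer-extended double-stranded 36-bp intergenic genomic probes together with negative controls, and binding took place in 1× PBS with 1% milk, 0.2 mg/ml BSA, 0.5% salmon testes DNA and 0.03% Triton X-100. An Alexa488 anti-GST antibody detected bound protein, and the array was scanned at 488 nm. Binding intensity is taken as the highest Masliner-normalised natural-log median intensity across replicate spots of either probe orientation.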
As for “AAAAAAAAAAAAAAAAGTACAAAAAGAAGAAAAAAA [XGTACX_site6521]”, the “gcPBM binding intensity (ln)” value was found to be 7.64.

Take “TTTTTTTTTTTTTTTTTTTTTTTATGTTCTTAAAAA [GTGCAC_negctrl_site62]”: the “gcPBM binding intensity (ln)” value was 6.98. Consider “AAAATATAGGTATGCACACACATATACTTCTGTGCA [CACACA_site1409]”, for which the “gcPBM binding intensity (ln)” value was found to be 8.08. In the case of “TTTTTTTTTTTTACGTGTACATAAATGTTAAGTAAT [XGTACX_site3901]” it was 7.11; in that of “TATAAATATTTATGTACACACATATACATGTTGAAT [CACACA_site5684]”, 7.06; in that of “AGATATTATTTATATATTTATATATATATATAGATA [TGCATGCA_negctrl_site77]”, 6.86. For “AGAGAAAAAAAAAATTGTACGTATGTAATAATATGC [XGTACX_site2981]”, the “gcPBM binding intensity (ln)” value was 7.08. As to “TAAATATCAAGACACACACACAAAAGTGAATAAATA [CACACA_site7723]”, the “gcPBM binding intensity (ln)” value is 6.89.

Take “AAAGTAAAAGAAAGCACACACACATGGATTTATGTA [CACACA_site5997]”: the “gcPBM binding intensity (ln)” value turned out to be 6.69.

On to “TTCTTTTTAAATTACACACACATATATATATGTATA [CACACA_site3515]”, for which the “gcPBM binding intensity (ln)” value was determined as 7.33.

For the sequence “TATTTACACCCATGCGCACACATAAATAAATAATAG [CACACA_site5350]”, the “gcPBM binding intensity (ln)” value turned out to be 8.34. Consider “TATATATATGTATGTGGTACTTATATTATATACATA [XGTACX_site4550]”, for which the “gcPBM binding intensity (ln)” value turned out to be 7.32.

As for CCATGTAGTGAATAGGTGCATATCAAAAAAAAAAAA, the “gcPBM binding intensity (ln)” value was 11. The figure for “ACAGAAAATAAAATTTGTACATATATAGAATAAAGA [XGTACX_site3014]” is 7.2. Regarding “ATACATATGGTGGATCGTACATATATATAATATGTA [XGTACX_site8631]”, the “gcPBM binding intensity (ln)” value was 6.86. As to “TTATACACAAAAAAAAAAATATATATATATATATAT [XGTACX_negctrl_site5]”, the “gcPBM binding intensity (ln)” value stood at 9.29. Consider “TGTTGTATTGAAGCTAAAAAATGAGGCAAAAAAAAA [CACACA_negctrl_site1189]”, for which the “gcPBM binding intensity (ln)” value turned out to be 7.

On to “ATTTATGAGTAATACACACACTTGTGGATATATTAC [CACACA_site7735]”, for which the “gcPBM binding intensity (ln)” value was determined as 6.81. With “TTTATATAATATAAATTTTTTTTGCAGTAATAAAAA [TGCATGCA_negctrl_site570]”, the “gcPBM binding intensity (ln)” value came out at 6.9.

As for “ACTTCAAAAAAAAAAAAATATATATATATATATTAT [GTGCAC_negctrl_site158]”, the “gcPBM binding intensity (ln)” value was found to be 7.18. Take “TTTTAAATATGCCATACACACTACTATATAATAAAT [CACACA_site5119]”: the “gcPBM binding intensity (ln)” value is 7.15. For “ATTTTATTTTCATATGAACACACATATATATATTAT [CACACA_site8741]”, the “gcPBM binding intensity (ln)” value worked out at 7.29. With “AACAACCAAAGGCACACACACAAAAAAAAAAATATA [CACACA_site399]”, the “gcPBM binding intensity (ln)” value was 7.59. On to “TGATAAGGATGTGAATTACTCAAAGGAAGTAATCAT [CACACA_negctrl_site1432]”, for which the “gcPBM binding intensity (ln)” value was 6.89.
